# Reference: the supplement of paper PMC8728848
# The other results are listed elsewhere or left out.
# Columns and labels:
# Experiment in all cases: glycan array binding signal (z-score within array); higher = stronger binding
# Details in all cases: glycan notation: IUPAC condensed, linker removed
# [1] = target: Neu5Ac(a2-6)Gal(b1-4)GlcNAc(b1-6)[Gal(b1-3)]GalNAc
# Method in brief: (§1)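 Glycan array data were curated from 3228 arrays in the Consortium for Functional Glycomics database and kept only where the protein sequence was available. Glycan names were converted to IUPAC-condensed notation, and columns mapping to the same glycan were averaged. The binding signal is a within-array Z-score, averaged across arrays of the same protein sequence at different concentrations or buffers and across linkers. Negative Z-scores can be read as non-binding.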
# [2] = target: Neu5Ac(a2-6)Gal(b1-4)GlcNAc6S
# Method in brief: as §1
# Neu5Ac(a2-6)GalNAc = target: Neu5Ac(a2-6)GalNAc
# Method in brief: as §1
# [3] = target: Neu5Ac(a2-6)GalNAc(b1-4)GlcNAc
# Method in brief: as §1
# [4] = target: Neu5Ac(a2-6)GalNAc(b1-4)GlcNAc6S
# Method in brief: as §1
# [5] = target: Neu5Ac(a2-6)GlcNAc(b1-4)GlcNAc
# Method in brief: as §1
# [6] = target: Neu5Ac(a2-6)GlcNAc(b1-4)GlcNAc(b1-4)GlcNAc
# Method in brief: as §1
# Neu5Ac(a2-8)Neu5Ac = target: Neu5Ac(a2-8)Neu5Ac
# Method in brief: as §1
# [7] = target: Neu5Ac(a2-8)Neu5Ac(a2-3)Gal(b1-3)GalNAc(b1-4)[Neu5Ac(a2-3)]Gal(b1-4)Glc
# Method in brief: as §1
# [8] = target: Neu5Ac(a2-8)Neu5Ac(a2-3)Gal(b1-3)GalNAc(b1-4)[Neu5Ac(a2-8)Neu5Ac(a2-3)]Gal(b1-4)Glc
# Method in brief: as §1
# [9] = target: Neu5Ac(a2-8)Neu5Ac(a2-3)Gal(b1-4)Glc
# Method in brief: as §1
# [10] = target: Neu5Ac(a2-8)Neu5Ac(a2-3)Gal(b1-4)GlcNAc
# Method in brief: as §1
# [11] = target: Neu5Ac(a2-8)Neu5Ac(a2-3)[Gal(b1-3)GalNAc(b1-4)]Gal(b1-4)Glc
# Method in brief: as §1
# [12] = target: Neu5Ac(a2-8)Neu5Ac(a2-3)[GalNAc(b1-4)]Gal(b1-4)Glc
# Method in brief: as §1
# [13] = target: Neu5Ac(a2-8)Neu5Ac(a2-8)Neu5Ac
# Method in brief: as §1
# [14] = target: Neu5Ac(a2-8)Neu5Ac(a2-8)Neu5Ac(a2-3)Gal(b1-4)Glc
# Method in brief: as §1
# [15] = target: Neu5Ac(a2-8)Neu5Ac(a2-8)Neu5Ac(a2-3)[Gal(b1-3)GalNAc(b1-4)]Gal(b1-4)Glc
# Method in brief: as §1
# [16] = target: Neu5Ac(a2-8)Neu5Ac(a2-8)Neu5Ac(a2-3)[GalNAc(b1-4)]Gal(b1-4)Glc
# Method in brief: as §1
# [17] = target: Neu5Ac(a2-8)Neu5Ac(a2-8)Neu5Ac(a2-8)Neu5Ac(a2-3)[GalNAc(b1-4)]Gal(b1-4)Glc
# Method in brief: as §1
# [18] = target: Neu5Ac(a2-8)Neu5Gc(a2-3)Gal(b1-4)GlcNAc
# Method in brief: as §1
# [19] = target: Neu5Ac(b2-6)Gal(b1-4)GlcNAc
# Method in brief: as §1
# Neu5Ac(b2-6)GalNAc = target: Neu5Ac(b2-6)GalNAc
# Method in brief: as §1
# [20] = target: Neu5Ac9Ac(a2-3)Gal(b1-3)GlcNAc
# Method in brief: as §1
# [21] = target: Neu5Ac9Ac(a2-3)Gal(b1-4)GlcNAc
# Method in brief: as §1
# [22] = target: Neu5Ac9Ac(a2-6)Gal(b1-4)GlcNAc
# Method in brief: as §1
# [23] = target: Neu5Gc(a2-3)Gal(b1-3)GlcNAc
# Method in brief: as §1
# [24] = target: Neu5Gc(a2-3)Gal(b1-3)[Fuc(a1-4)]GlcNAc
# Method in brief: as §1
# Neu5Gc(a2-3)Gal(b1-4)Glc = target: Neu5Gc(a2-3)Gal(b1-4)Glc
# Method in brief: as §1
# [25] = target: Neu5Gc(a2-3)Gal(b1-4)GlcNAc
# Method in brief: as §1
# [26] = target: Neu5Gc(a2-3)Gal(b1-4)GlcNAc(b1-3)Gal(b1-4)GlcNAc(b1-2)Man(a1-3)[Neu5Gc(a2-3)Gal(b1-4)GlcNAc(b1-3)Gal(b1-4)GlcNAc(b1-2)Man(a1-6)]Man(b1-4)GlcNAc(b1-4)GlcNAc
# Method in brief: as §1
# [27] = target: Neu5Gc(a2-3)Gal(b1-4)[Fuc(a1-3)]GlcNAc
# Method in brief: as §1
# [28] = target: Neu5Gc(a2-6)Gal(b1-4)GlcNAc
# Method in brief: as §1
# Neu5Gc(a2-6)GalNAc = target: Neu5Gc(a2-6)GalNAc
# Method in brief: as §1
# [29] = target: Neu5Gc(a2-8)Neu5Ac(a2-3)Gal(b1-4)GlcNAc
# Method in brief: as §1
# [30] = target: Neu5Gc(a2-8)Neu5Gc(a2-3)Gal(b1-4)GlcNAc
# Method in brief: as §1
# [31] = target: Neu5Gc(a2-8)Neu5Gc(a2-3)Gal(b1-4)GlcNAc(b1-3)Gal(b1-4)GlcNAc
# Method in brief: as §1
# [32] = target: Neu5Gc(a2-8)Neu5Gc(a2-6)Gal(b1-4)GlcNAc
# Method in brief: as §1
# [33] = target: Neu5Gc(b2-6)Gal(b1-4)GlcNAc
# Method in brief: as §1
binder,measurement,setting,value
PLU (Photorhabdus luminiscence) (protein) HHHHHHENLYFQSSIVFASIDPRSNPLQTSSQNYVDIPGLKLDVSKYSNSPCLTALITLNIPTPYASGNNFPGGNFAIVTDQGEQLAYGGFTYSSKIPENSGRMPFTLVARYSLASNVSTIKAQWSNIRGSTVHIDSYASISAVIQCNQLV,glycan array binding signal (z-score),[1],-0.123
same,glycan array binding signal (z-score),[2],-0.322
same,glycan array binding signal (z-score),Neu5Ac(a2-6)GalNAc,-0.336
same,glycan array binding signal (z-score),[3],-0.203
same,glycan array binding signal (z-score),[4],-0.252
same,glycan array binding signal (z-score),[5],-0.295
same,glycan array binding signal (z-score),[6],-0.12
same,glycan array binding signal (z-score),Neu5Ac(a2-8)Neu5Ac,-0.287
same,glycan array binding signal (z-score),[7],-0.28
same,glycan array binding signal (z-score),[8],-0.228
same,glycan array binding signal (z-score),[9],-0.288
same,glycan array binding signal (z-score),[10],-0.232
same,glycan array binding signal (z-score),[11],-0.253
same,glycan array binding signal (z-score),[12],-0.242
same,glycan array binding signal (z-score),[13],-0.288
same,glycan array binding signal (z-score),[14],-0.267
same,glycan array binding signal (z-score),[15],-0.236
same,glycan array binding signal (z-score),[16],-0.227
same,glycan array binding signal (z-score),[17],-0.214
same,glycan array binding signal (z-score),[18],-0.399
same,glycan array binding signal (z-score),[19],-0.266
same,glycan array binding signal (z-score),Neu5Ac(b2-6)GalNAc,-0.346
same,glycan array binding signal (z-score),[20],-0.404
same,glycan array binding signal (z-score),[21],-0.263
same,glycan array binding signal (z-score),[22],-0.249
same,glycan array binding signal (z-score),[23],-0.325
same,glycan array binding signal (z-score),[24],-0.32
same,glycan array binding signal (z-score),Neu5Gc(a2-3)Gal(b1-4)Glc,-0.166
same,glycan array binding signal (z-score),[25],-0.219
same,glycan array binding signal (z-score),[26],-0.221
same,glycan array binding signal (z-score),[27],-0.228
same,glycan array binding signal (z-score),[28],-0.228
same,glycan array binding signal (z-score),Neu5Gc(a2-6)GalNAc,-0.326
same,glycan array binding signal (z-score),[29],-0.285
same,glycan array binding signal (z-score),[30],-0.333
same,glycan array binding signal (z-score),[31],-0.32
same,glycan array binding signal (z-score),[32],-0.367
same,glycan array binding signal (z-score),[33],-0.227
